Consider 44 sequences from the supplement of paper PMC11417369.

The other results are listed elsewhere or left out.

The test system of the experiment is PF3D7_0420300 AP2 domain 1 (GST-tagged). Kind of experiment: gcPBM binding intensity (ln(normalized median fluorescence intensity)); higher = stronger DNA binding. The gist of the method: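 The binding buffer was 1× PBS containing 1% milk, 0.2 mg/ml BSA, 0.5% salmon testes DNA and 0.03% Triton X-100. In it, GST-tagged P. falciparum DNA-binding domains expressed in E. coli were applied for 1 h to an Agilent 4 × 180k array of primer-extended double-stranded 36-bp intergenic genomic probes plus negative controls. Binding intensity, read with Alexa488 anti-GST antibody and a 488 nm scan, is the highest Masliner-normalised natural-log median intensity across replicate spots of either probe orientation.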
As to “TTTAAAATTTTTTTTTTTTTTTTTTTTTTTTTTTAT [TGCATGCA_negctrl_site213]”, the “gcPBM binding intensity (ln)” value is 8.65.

With “ATATAAATATGTTCTGCACACAAATAAGTGTTTGAA [CACACA_site9291]”, the “gcPBM binding intensity (ln)” value is 9.33.

Consider “TGATTCTGTCATGGTGCACACCAGAACCATTATAAA [CACACA_site1965]”, for which the “gcPBM binding intensity (ln)” value worked out at 8.98.

“TCTTAAAATCGGAAATGAAATAAAGTTTACAATATG [TGCATGCA_negctrl_site553]”: the “gcPBM binding intensity (ln)” value was 9.07.

Turning to “ATATATAAATATATATGTACACACATATACATGTTG [XGTACX_site6653]”, the “gcPBM binding intensity (ln)” value is 9.59.

As to “AATTATTCTATATATTGTACATGTTTGTTTTTTTTT [XGTACX_site3130]”, the “gcPBM binding intensity (ln)” value was 9.7.

For “TGTTTAATCACATGTTTGCACTTTCCTTTTGTAAAT [GTGCAC_site9893]”, the “gcPBM binding intensity (ln)” value was determined as 9.55.

On to “TATGGGGAACTATAATGTACGTATTCCTCATATATA [XGTACX_site338]”, for which the “gcPBM binding intensity (ln)” value stood at 9.25.

On to “GATGATACACAGGTGTTGCACTTAAATGCAGTTCTT [GTGCAC_site9627]”, for which the “gcPBM binding intensity (ln)” value is 9.43.

For the sequence “ATTAAAATAGAAAAAAAAAAAAAAAAAAAAAAAAAA [CACACA_negctrl_site1117]”, the “gcPBM binding intensity (ln)” value is 8.39.

Regarding “TTTTCAAAATGTTGTACACACAAAAAAAAAAAAAAA [CACACA_site1550]”, the “gcPBM binding intensity (ln)” value stood at 9.11.

In the case of “TAATCATTTTTAAATTGTACAATTTATATAATAAGT [XGTACX_site6081]”, the “gcPBM binding intensity (ln)” value was 9.09.

With “TTGATATACTATGACACATGCAAATAAAACATTATA [TGCATGCA_site535]”, the “gcPBM binding intensity (ln)” value is 9.12.

Regarding “TTGTATTGTATATGCACACATAGAACACTTTTTTTT [CACACA_site4133]”, the “gcPBM binding intensity (ln)” value was 9.46.

Consider “TAAATTTTGTTTAGCACACACACATACATACATACA [CACACA_site3155]”, for which the “gcPBM binding intensity (ln)” value came out at 9.84.

Take “TATTTTTTAAGTGAACATTTGTTATTATATTCTTAT [GTGCAC_negctrl_site172]”: the “gcPBM binding intensity (ln)” value was found to be 9.16.

“TATATCTGTATCATTACACACATGTATACTTATTTG [CACACA_site6134]”: the “gcPBM binding intensity (ln)” value came out at 9.75.

For “AGAAGATTAAAAATTGCACACAAAAATATATTTTCT [CACACA_site8359]”, the “gcPBM binding intensity (ln)” value is 9.4.

Take “TAATAAATAAAAACATGTACATATATACATATATGT [XGTACX_site485]”: the “gcPBM binding intensity (ln)” value is 9.28.

Regarding “GATATATAGGTATTTACACACAATGTGAGATCTATA [CACACA_site7575]”, the “gcPBM binding intensity (ln)” value stood at 9.58.

For “AAAGACTTTTTATGAGCACACACATATATTATGGAG [CACACA_site8254]”, the “gcPBM binding intensity (ln)” value was 9.37.

With “TTTCTATAATATATATGTACATATATAATATGTCGT [XGTACX_site3676]”, the “gcPBM binding intensity (ln)” value was found to be 9.08.

“AGATAAAATAAATACACACACATAAATACGTACAAA [CACACA_site4739]”: the “gcPBM binding intensity (ln)” value came to 10.2.

As to “ATGATTATACAAAATATACACACGTGGACACAAATA [CACACA_site8304]”, the “gcPBM binding intensity (ln)” value was 9.81.

For the sequence “TGATAATAAGCATACACACACACACTAAAAAAAAAA [CACACA_site6478]”, the “gcPBM binding intensity (ln)” value turned out to be 10.2.

As for “GGTTATAACCCACATGCACACGTAAATAAATATTAT [CACACA_site5992]”, the “gcPBM binding intensity (ln)” value was determined as 9.44.

In the case of “ATAAATAATAAGGTTACAACAAACACACAAAGGAAT [XGTACX_negctrl_site611]”, the “gcPBM binding intensity (ln)” value turned out to be 10.

Consider “TAAAAAAAAAAGTATACACACTTCTTAATGTCAACA [CACACA_site4818]”, for which the “gcPBM binding intensity (ln)” value came out at 9.22.

In the case of “TGTCCAATTTATTGTGCACACCTCAAAAGTGGGTAA [CACACA_site3826]”, the “gcPBM binding intensity (ln)” value was found to be 9.22.

“CTATATATTTTTCATTGTACACAAATTAAAGAAAAA [XGTACX_site8385]”: the “gcPBM binding intensity (ln)” value is 8.9.

On to “TTTTTTTATAAATTCACACAAAATATAATATTAAAA [CACACA_site4766]”, for which the “gcPBM binding intensity (ln)” value came out at 8.93.

For the sequence “AATGTCATCATATTCATATATATTTATTTCTTTTTG [GTGCAC_negctrl_site500]”, the “gcPBM binding intensity (ln)” value is 9.42.

Take “ATATAATCCTTTCAAACACACAAAATATAATTAATA [CACACA_site1829]”: the “gcPBM binding intensity (ln)” value amounted to 9.4.

With “ATGATGGAATATTCTACACACAATTAATAAACAAAC [CACACA_site1045]”, the “gcPBM binding intensity (ln)” value amounted to 9.87.

In the case of “AAAAAAAAAAGACACACACACAATAGTATATAAATC [CACACA_site6579]”, the “gcPBM binding intensity (ln)” value came to 10.2.

As to TTTTTATTTTTTCAAGTGCATATTTTTGGCTTCTTA, the “gcPBM binding intensity (ln)” value was 9.08.

As for “TATATATATATATTACGTTTTAAATATACTAATCTT [CACACA_negctrl_site32]”, the “gcPBM binding intensity (ln)” value is 9.18.

On to “AAAAAAAAAAAAAATACACACATATATATATATATA [CACACA_site85]”, for which the “gcPBM binding intensity (ln)” value is 9.45.

Consider “CTTTTTCCTTTATATTGTACATAATTAAAGATAATA [XGTACX_site7014]”, for which the “gcPBM binding intensity (ln)” value worked out at 9.05.

Turning to “TAAATTTATATATAGGTGCGCAATTTGATAATAGTT [GTGCAC_site9783]”, the “gcPBM binding intensity (ln)” value is 9.37.

As for “TATAAATAGATATATACACACATTTTTAATGATAAA [CACACA_site7299]”, the “gcPBM binding intensity (ln)” value stood at 9.47.

For “AATAAAAATATAGGCACACATATTAAAATGAACTTA [CACACA_site830]”, the “gcPBM binding intensity (ln)” value was 9.53.

In the case of “TAAAGATGTATTTATTCACACATCTCATATAATGAA [CACACA_site5229]”, the “gcPBM binding intensity (ln)” value worked out at 8.94.

Consider “TTATGTATCCTTATAAGAAAAAAAAAAAAATTCTCT [CACACA_negctrl_site1183]”, for which the “gcPBM binding intensity (ln)” value amounted to 8.88.
